Measurements: the supplement of paper PMC4604168 (melanoma cell lines)
The list shows a part of the results. Repeats are few or missing, and single values can be far off.

Test system: 501Mel
Assay: cell count relative to DMSO control; melanoma cells; higher = more viable cells
Conditions: library dose: low library concentration; 72 h
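Also: cell number obtained by counting DAPI-stained nuclei in high-throughput microscope images with image analysis software, screen run in 1,536-well plates.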

Compound	cell count [%]
O=S(=O)(c1ccccc1)N(CC(F)(F)F)c1ccc(C(O)(C(F)(F)F)C(F)(F)F)cc1 + O=c1cc(-c2cccc3c2Sc2ccccc2S3)oc(N2CCOCC2)c1 [KU55933] (first compound 1.4 µM, partner dose 1 µM)	107
O=S(=O)(c1ccccc1)N(CC(F)(F)F)c1ccc(C(O)(C(F)(F)F)C(F)(F)F)cc1 + Oc1nc(-c2ccc(C(F)(F)F)cc2)nc2c1CSCC2 [XAV939] (first compound 1.4 µM, partner dose 2 µM)	85.9
COc1ccc2c(c1)CCC1C2CCC2(C)C(NCCCCCCN3C(=O)C=CC3=O)CCC12 (centres undefined) + Cn1cc(/C=C2\C(=O)Nc3cccnc32)c2ccccc21 [GW441756] (first compound 0.4 µM, partner dose 0.4 µM)	92.9
COc1ccc(COc2ccc(Cc3cnc(N)nc3N)cc2OC)cc1 + O=S(=O)(c1ccccc1)N(CC(F)(F)F)c1ccc(C(O)(C(F)(F)F)C(F)(F)F)cc1 [T0901317] (first compound 1 µM, partner dose 1.4 µM)	88.9
Cc1cc([N+](=O)[O-])ccc1NS(=O)(=O)c1cc(Cl)ccc1Cl + c1cc(-c2cnn3cc(-c4ccc(OCCN5CCCCC5)cc4)cnc23)ccn1 [Dorsomorphin] (first compound 1 µM, partner dose 0.4 µM)	85
Oc1nc(-c2ccc(C(F)(F)F)cc2)nc2c1CSCC2 + CC(C)CCN1c2nc(Nc3cc(F)c(O)c(F)c3)ncc2N(C)C(=O)C1C [BID1870] (first compound 2 µM, partner dose 0.2 µM)	109
O=S(=O)(c1ccccc1)N(CC(F)(F)F)c1ccc(C(O)(C(F)(F)F)C(F)(F)F)cc1 + COc1cc(N2CCC(N3CCN(C)CC3)CC2)ccc1Nc1ncc(Cl)c(Nc2ccccc2S(=O)(=O)C(C)C)n1 [NVP-TAE684] (first compound 1.4 µM, partner dose 0.08 µM)	83.9
Oc1nc(-c2ccc(C(F)(F)F)cc2)nc2c1CSCC2 + c1cc(-c2cnn3cc(-c4ccc(OCCN5CCCCC5)cc4)cnc23)ccn1 [Dorsomorphin] (first compound 2 µM, partner dose 0.4 µM)	95.4
COc1ccc(-c2ccc3c(N4CCOCC4)nc(N4C[C@@H](C)O[C@@H](C)C4)nc3n2)cc1CO + Oc1cc(-c2nc(-c3ccccc3)[nH]c2-c2ccncc2)ccc1Cl [L779450] (first compound 0.02 µM, partner dose 0.2 µM)	79.3
CCN(CC)CCCCNc1ncc2cc(-c3cc(OC)cc(OC)c3)c(NC(=O)NC(C)(C)C)nc2n1 + Cc1cc([N+](=O)[O-])ccc1NS(=O)(=O)c1cc(Cl)ccc1Cl [FH535] (first compound 0.1 µM, partner dose 1 µM)	85.6
O=C(O)C(=O)Nc1sc2c(c1C(=O)O)CCNC2 + c1cc(-c2cnn3cc(-c4ccc(OCCN5CCCCC5)cc4)cnc23)ccn1 [Dorsomorphin] (first compound 1.66667 µM, partner dose 0.4 µM)	93.6
O=S(=O)(c1ccccc1)N(CC(F)(F)F)c1ccc(C(O)(C(F)(F)F)C(F)(F)F)cc1 + CCCCCCCCCCCC1=C(O)C(=O)C=C(O)C1=O [Embelin] (first compound 1.4 µM, partner dose 1.2 µM)	108
COC(=O)c1sccc1S(=O)(=O)Nc1ccc(Nc2ccccc2)cc1OC + O=S(=O)(c1ccccc1)N(CC(F)(F)F)c1ccc(C(O)(C(F)(F)F)C(F)(F)F)cc1 [T0901317] (first compound 1 µM, partner dose 1.4 µM)	79.6
COc1ccc2c(c1)CCC1C2CCC2(C)C(NCCCCCCN3C(=O)C=CC3=O)CCC12 (centres undefined) + Oc1nc(-c2ccc(C(F)(F)F)cc2)nc2c1CSCC2 [XAV939] (first compound 0.4 µM, partner dose 2 µM)	109
COc1ccc2c(c1)CCC1C2CCC2(C)C(NCCCCCCN3C(=O)C=CC3=O)CCC12 (centres undefined) + O=c1cc(-c2cccc3c2Sc2ccccc2S3)oc(N2CCOCC2)c1 [KU55933] (first compound 0.4 µM, partner dose 1 µM)	140
CCN(CC)CCCCNc1ncc2cc(-c3cc(OC)cc(OC)c3)c(NC(=O)NC(C)(C)C)nc2n1 + CC(C)CCN1c2nc(Nc3cc(F)c(O)c(F)c3)ncc2N(C)C(=O)C1C [BID1870] (first compound 0.1 µM, partner dose 0.2 µM)	90.7
O=C1NC(=O)/C(=C/c2ccc(-c3ccc(F)cc3O)o2)S1 + c1cc(-c2cnn3cc(-c4ccc(OCCN5CCCCC5)cc4)cnc23)ccn1 [Dorsomorphin] (first compound 1 µM, partner dose 0.4 µM)	82.1

Compound	cell count [%]
COc1cc2ncnc(Nc3ccc(Oc4ccccc4)cc3)c2cc1OC + Oc1nc(-c2ccc(C(F)(F)F)cc2)nc2c1CSCC2 [XAV939] (first compound 2 µM, partner dose 2 µM)	102
O=C1NC(=O)/C(=C/c2ccc(-c3ccc(F)cc3O)o2)S1 + COc1cc(N2CCC(N3CCN(C)CC3)CC2)ccc1Nc1ncc(Cl)c(Nc2ccccc2S(=O)(=O)C(C)C)n1 [NVP-TAE684] (first compound 1 µM, partner dose 0.08 µM)	82.5
CCN(CC)CCCCNc1ncc2cc(-c3cc(OC)cc(OC)c3)c(NC(=O)NC(C)(C)C)nc2n1 + c1cc(-c2cnn3cc(-c4ccc(OCCN5CCCCC5)cc4)cnc23)ccn1 [Dorsomorphin] (first compound 0.1 µM, partner dose 0.4 µM)	91.9
O=C1NC(=O)/C(=C/c2ccc(-c3ccc(F)cc3O)o2)S1 + Oc1nc(-c2ccc(C(F)(F)F)cc2)nc2c1CSCC2 [XAV939] (first compound 1 µM, partner dose 2 µM)	96.6
COc1ccc2c(c1)CCC1C2CCC2(C)C(NCCCCCCN3C(=O)C=CC3=O)CCC12 (centres undefined) + CC(C)CCN1c2nc(Nc3cc(F)c(O)c(F)c3)ncc2N(C)C(=O)C1C [BID1870] (first compound 0.4 µM, partner dose 0.2 µM)	97.3
c1cc(-c2cnn3cc(-c4ccc(OCCN5CCCCC5)cc4)cnc23)ccn1 [Dorsomorphin] + Cn1cc(/C=C2\C(=O)Nc3cccnc32)c2ccccc21 [GW441756] (first compound 0.4 µM, partner dose 0.4 µM)	85.9
COc1cc(N2CCC(N3CCN(C)CC3)CC2)ccc1Nc1ncc(Cl)c(Nc2ccccc2S(=O)(=O)C(C)C)n1 + O=c1cc(-c2cccc3c2Sc2ccccc2S3)oc(N2CCOCC2)c1 [KU55933] (first compound 0.08 µM, partner dose 1 µM)	88.3
COc1ccc2c(c1)CCC1C2CCC2(C)C(NCCCCCCN3C(=O)C=CC3=O)CCC12 (centres undefined) + O=S(=O)(c1ccccc1)N(CC(F)(F)F)c1ccc(C(O)(C(F)(F)F)C(F)(F)F)cc1 [T0901317] (first compound 0.4 µM, partner dose 1.4 µM)	85.3
O=C(O)C(=O)Nc1sc2c(c1C(=O)O)CCNC2 + CC(C)CCN1c2nc(Nc3cc(F)c(O)c(F)c3)ncc2N(C)C(=O)C1C [BID1870] (first compound 1.66667 µM, partner dose 0.2 µM)	88.2
COc1ccc(COc2ccc(Cc3cnc(N)nc3N)cc2OC)cc1 + Oc1nc(-c2ccc(C(F)(F)F)cc2)nc2c1CSCC2 [XAV939] (first compound 1 µM, partner dose 2 µM)	99.9
Oc1cc(-c2nc(-c3ccccc3)[nH]c2-c2ccncc2)ccc1Cl + c1cc(-c2cnn3cc(-c4ccc(OCCN5CCCCC5)cc4)cnc23)ccn1 [Dorsomorphin] (first compound 0.2 µM, partner dose 0.4 µM)	46.3
COc1ccc(COc2ccc(Cc3cnc(N)nc3N)cc2OC)cc1 + COc1cc(N2CCC(N3CCN(C)CC3)CC2)ccc1Nc1ncc(Cl)c(Nc2ccccc2S(=O)(=O)C(C)C)n1 [NVP-TAE684] (first compound 1 µM, partner dose 0.08 µM)	103
COc1ccc(-c2ccc3c(N4CCOCC4)nc(N4C[C@@H](C)O[C@@H](C)C4)nc3n2)cc1CO + CC(C)CCN1c2nc(Nc3cc(F)c(O)c(F)c3)ncc2N(C)C(=O)C1C [BID1870] (first compound 0.02 µM, partner dose 0.2 µM)	100
O=C(O)C(=O)Nc1sc2c(c1C(=O)O)CCNC2 + CCCCCCCCCCCC1=C(O)C(=O)C=C(O)C1=O [Embelin] (first compound 1.66667 µM, partner dose 1.2 µM)	90.5
N#Cc1c(O)c2c(-c3ccc(-c4ccccc4O)cc3)csc2[nH]c1=O + O=C1NC(=O)/C(=C/c2ccc(-c3ccc(F)cc3O)o2)S1 [AS252424] (first compound 2 µM, partner dose 1 µM)	108
COc1ccc(COc2ccc(Cc3cnc(N)nc3N)cc2OC)cc1 + O=c1cc(-c2cccc3c2Sc2ccccc2S3)oc(N2CCOCC2)c1 [KU55933] (first compound 1 µM, partner dose 1 µM)	91.9
COC(=O)c1sccc1S(=O)(=O)Nc1ccc(Nc2ccccc2)cc1OC + Cc1cc([N+](=O)[O-])ccc1NS(=O)(=O)c1cc(Cl)ccc1Cl [FH535] (first compound 1 µM, partner dose 1 µM)	107
